According to ChEMBL document CHEMBL1201862, “PubChem BioAssay data set” (2004):

These compounds were tested on NCI-H322M (assay: growth of human tumour cells (NCI), 48 h).

SMILES | GI50
O=C1c2cccc3cccc(c23)C(=O)N1O | inactive: 90.8 µM
CC(=O)OC1CCC2(C)C(=CCC3C2CCC2(C)C3CC3OC4(CCC(C)CN4)C(C)C32)C1 (stereo unspecified) | inactive: > 100 µM
Oc1c(Br)ccc2cccnc12 | inactive: 7.26 µM
CC(C)=NNc1ncnc2[nH]cnc12 | inactive: 3.53 µM
Cc1ccccc1NC(=O)CSc1nnc(Cc2ccccc2)o1 | inactive: > 100 µM
CC(=O)Nc1cc2c(cc1O)CC[C@@H]1[C@@H]2CC[C@]2(C)[C@@H](O)CC[C@@H]12 | inactive: 81.7 µM
O=C(O)c1cccc(OCCO)c1 | inactive: > 100 µM
CN(C)/N=C(\CCN1CCCC1)CC(c1ccccc1)c1c(O)c2ccccc2oc1=O (stereo unspecified) | inactive: > 100 µM
COC(C)(C)CCc1[nH]c2ccccc2c1CC(=O)NCCc1cncn1C | inactive: > 100 µM
O=C(Cc1ccccc1)NN1C(=O)/C(=C\c2ccc(O)cc2)S/C1=N\c1ccccc1 | inactive: > 100 µM
O=C1CCCCC[C@]12SC[C@H]1CON=C12 | inactive: 52.4 µM
CC(=O)OCC1OC(OC(C)=O)C(NC#N)C(OC(C)=O)C1OC(C)=O (stereo unspecified) | inactive: > 100 µM
O=C1/C(=C\c2cccc(Oc3ccccc3)c2)S(=O)(=O)C(c2ccccc2)N1c1ccc(Cl)cc1 (stereo unspecified) | inactive: 36.4 µM
C=CCOCC1C2CCC3(OCCO3)C21 (stereo unspecified) | inactive: > 100 µM
CCCCC1c2c([nH]c3ccccc23)C2C(=O)N(c3ccc(OC)cc3)C(=O)C2C1CCC (stereo unspecified) | inactive: > 10 µM
COC(=O)C1(Cc2ccccc2)Cc2cc3c(cc2C1)CCC3 | inactive: 12.2 µM
CCOC(=O)Cn1c(=O)c2cc(C)cc3c(Cl)nc4c(OC)c(OC)cc1c4c32 | inactive: > 100 µM
[N-]=[N+]=CC(=O)c1ccccc1C#CCCc1ccccc1 | inactive: 40.2 µM
CC(=O)CC(=O)/C=C/c1cccs1 | inactive: 51.4 µM
COc1ccc(-c2cc(C(O)C3CCCCN3)c3ccccc3n2)cc1 (stereo unspecified) | inactive: 8.22 µM
Nc1c2c(=O)[nH]c(=O)c2c(N)c2c(=O)c3ccccc3c(=O)c12 | inactive: 1.23 µM
COc1cc2c(cc1OC)[C@@H](C(O)c1ccccc1)NCC2 (stereo partly specified) | inactive: > 100 µM
CCOC(=O)Oc1ccc2[nH]c3c(C)cc(N)c(C)c3c2c1 | inactive: > 100 µM
CCCCc1c2c(nc3c1CCCC3=O)CCCC2 | inactive: > 100 µM

SMILES | GI50
N#C[C@@H](c1nc2ccccc2s1)c1ncccc1[N+](=O)[O-] | inactive: 15.7 µM
O=C1c2sc(-c3ccc(F)cc3)cc2-n2cccc21 | inactive: 22.3 µM
C=C1C(=O)O[C@@H]2[C@H](O)[C@@H](C)[C@@H]3C=CC(=O)[C@@]3(C)[C@@H](OC(=O)/C(C)=C/C)[C@H]12 | inactive: 2.72 µM
C=C1C(=O)OC2CC(C)C(C(CC(C)=O)OC(C)=O)=CCC12 (stereo unspecified) | inactive: 38.3 µM
CC(C)CC(N)C(=O)NC(CNC(CCC(N)=O)C(=O)NC(CC(C)C)C(=O)NC(CC(C)C)C(=O)O)Cc1ccc2ccccc2c1 (stereo unspecified) | inactive: > 10 µM
Cc1nn(C)c2c1C(=O)N(C)CC(=O)N2C | inactive: > 100 µM
C=C1CC(Cn2cc(Br)c(=O)[nH]c2=O)(c2ccc(Br)cc2)OC1=O (stereo unspecified) | inactive: 14.8 µM
CC(=O)/N=C1/N(/C=C2\C(=O)Oc3ccccc3C2=O)C(=O)/C(=C/c2ccc(OC(C)=O)cc2)N1C | inactive: > 100 µM
O=c1[nH]c(=S)[nH]n1C(=S)n1[nH]c(=S)[nH]c1=O | inactive: > 100 µM
CCC(C)OC(=O)C1C2CCC(O2)C1C(=O)O (stereo unspecified) | inactive: > 100 µM
O=C1C(Cl)=C(OCCCl)C(=O)c2c(O)ccc(O)c21 | inactive: 15.6 µM
COc1cc(C=O)cc(O)c1O | inactive: > 100 µM
Clc1ncc(C(Cl)(Cl)Cl)nc1-c1ccccc1 | inactive: 1.8 µM
O=C1C[C@H](Sc2ccccc2)C2(OCCO2)[C@@H](Sc2ccccc2)C1 | inactive: 6.14 µM
OC12c3ccccc3C1CCCCCC21OCCCO1 (stereo unspecified) | inactive: > 100 µM
COc1ccc(NC(=O)/C(CC2=Nc3ccc([N+](=O)[O-])cc3NC2O)=N\NC(=O)C[N+](C)(C)C)c(OC)c1 (stereo unspecified) | inactive: > 100 µM
CC(=O)C1(Cc2cccc3ccccc23)S(=O)(=O)OCCOS1(=O)=O | inactive: 20.2 µM
CC(=O)NC(CCCCN(Cc1ccccc1)C(=O)N(C)N=O)C(=O)NCc1ccccc1 (stereo unspecified) | inactive: > 100 µM
COc1cc(/C=C2\N=C(c3ccccc3)N(c3ccc(C(=O)c4ccccc4)cc3N3C(=O)/C(=C/c4cc(OC)c(OC)c(OC)c4)N=C3c3ccccc3)C2=O)cc(OC)c1OC | inactive: 27.2 µM
O=C1CCc2cc3c(cc21)CC1(Cc2cc4c(cc2C1)CCCC4)C3 | inactive: > 100 µM
Cn1c2c([N+](=O)[O-])[se]nc2c(=O)n1-c1ccc([N+](=O)[O-])cc1 | inactive: 3.47 µM
CC(C)(C)c1cc(C(CO)OCCOCCO)cc(C(C)(C)C)c1O (stereo unspecified) | inactive: > 100 µM
Cc1ccc(S(=O)(=O)N/N=C2/C3CC4CCC2C4C3)cc1 (stereo unspecified) | inactive: > 100 µM
Cc1cccc2c1NC(=S)[C@@H]1CCCN1C2=O | inactive: > 100 µM

SMILES | GI50
COC(=O)[C@@H](NC(=O)[C@H](N)Cc1ccc(N(CCCl)CCCl)cc1)C(C)C | inactive: 36.6 µM
CCOc1c(/N=N/c2ccccc2Cl)c(-c2ccccc2)nn1C(=S)S | inactive: 95.5 µM
COc1ccc(S(=O)(=O)N/N=C/CN2C(=O)c3ccccc3C2=O)cc1OC | inactive: > 100 µM
CN(C)Cc1cc(/N=N/c2c(Cl)cccc2Cl)ccc1O | inactive: > 100 µM
CCOC(=O)NNC(=O)NCc1cccc(CNC(=O)NNC(=O)OCC)c1 | inactive: > 100 µM
COC(=N)c1ncn(Cc2ccccc2)c1N | inactive: > 100 µM
C/C(CC(=O)Nc1ccccc1)=N\NC(N)=S | inactive: > 100 µM
COc1ccc(C2C(N)=NCC2c2ccccn2)cc1 (stereo unspecified) | inactive: > 100 µM
COc1ccc(CCN(C)C2CCC(C#N)(c3ccc(OC)c(OC)c3)CC2)cc1OC (stereo unspecified) | inactive: > 100 µM
Fc1cccc(CSc2ncnc3c2ncn3C2CCCS2)c1 (stereo unspecified) | inactive: 38.2 µM
CCCC1NC(C#N)(C#N)C(CCC)NC1(C#N)C#N (stereo unspecified) | inactive: 37.6 µM
Sc1nnc(-c2ccnc(-c3nnc(S)[nH]3)c2)[nH]1 | inactive: > 100 µM
CCCC(=O)OC[n+]1ccc2c(C)c3[nH]c4ccc(OC)cc4c3c(C)c2c1 | active: 0.334 µM
NC(=O)CCCC(NCc1c2ccccc2nc2ccccc12)C(=O)O (stereo unspecified) | inactive: > 100 µM
CC1(C)COC2C(N(Cc3ccccc3)Cc3ccccc3)C(=O)N21 (stereo unspecified) | inactive: 30.3 µM
COc1ccc(OC)c(/C=C/C(=O)C(C)(C)C)c1 | inactive: 24 µM
CCOC(=O)c1c(-c2ccccc2)c(C)cn1C | inactive: > 10 µM
Cc1cc(C)c2c(n1)S(=O)(=O)N(CCCN1CCN(c3cccc(C(F)(F)F)c3)CC1)C(C(=O)c1ccccc1)=C2O | inactive: 6.76 µM
COC(=O)c1cc2c(s1)C(=O)c1ccccc1-2 | inactive: > 100 µM
Cc1ccc(-c2c(C#N)c(-c3ccc([N+](=O)[O-])cc3)c(C#N)c(=O)n2NS(=O)(=O)c2ccccc2)cc1 | inactive: 63.5 µM
Cc1ccc([N+](=O)[O-])cc1S(=O)(=O)Nc1ccc(C2=NN(C(=O)c3ccccc3)C(c3ccccc3)C2)cc1 (stereo unspecified) | inactive: 33 µM
c1ccc(C(NC2=NCCO2)C2CC2)cc1 (stereo unspecified) | inactive: > 100 µM
COc1ccc2cc1Oc1ccc(cc1)CC1c3cc(OC)c(cc3CCN1C)Oc1c(OC)c(OC)cc3c1C(C2)N(C)CC3 (stereo unspecified) | inactive: 21.3 µM
Cc1ccc(Nc2n[nH]c(NS(=O)(=O)c3cc(C(=O)Nc4ccc(Cl)cc4)c(Cl)cc3S)n2)cc1 | inactive: 88.5 µM

SMILES | GI50
CCCCN(C(=O)c1ccccc1)C1CCC(=O)c2[nH]c3ccccc3c21 (stereo unspecified) | inactive: 42.7 µM
CCOC(=O)C(NC(=O)Nc1ccccc1F)(OC)C(F)(F)F (stereo unspecified) | inactive: > 100 µM
CCC1C(c2ccccc2O)c2cc3c(cc2OC1N1CCOCC1)OCO3 (stereo unspecified) | inactive: 16.2 µM
COc1ccccc1NC(=O)/C(=C/c1ccccc1)C(C)=O | inactive: 45 µM
Cc1nc(O)nc2c1C(NCCCN(C)C)c1cc(Cl)ccc1N2 (stereo unspecified) | inactive: 15.5 µM
CCOC(=O)c1c2ccccc2n2c(=O)n(-c3ccccc3)nnc12 | inactive: > 100 µM
OC(C1CCCCCCCCCC1)C(O)C1CCCCCCCCCC1 (stereo unspecified) | inactive: > 100 µM
[N-]=[N+]=Nc1ccccc1-[n+]1noc([O-])c1Br | inactive: > 100 µM
COC(=O)c1cc(OS(=O)(=O)C(F)(F)F)c(=O)n2c1CCCC2 | inactive: > 100 µM
CC1=C(C(=O)Nc2ccccc2)C2(CCCCC2)C(C#N)=C(SCC(=O)Nc2ccc(Br)cc2)N1 | inactive: 5.58 µM
CN(C)C(=S)SCC(N)=O | inactive: > 100 µM
Nc1cc[nH]c(=O)n1 | inactive: > 100 µM
CCCCCCCCC(O)c1ccc(/C=C\C(O)CCCC(=O)O)s1 (stereo unspecified) | inactive: > 100 µM
CC(=O)NC(CCC(=O)C=[N+]=[N-])C(=O)O (stereo unspecified) | inactive: > 100 µM
CCOC(=O)C(C(=O)OCC)P(=S)(S)c1ccccc1 (stereo unspecified) | inactive: > 100 µM
COCOC1CCCC[C@@]1(OCCOCCO[C@@]1(c2ccccc2)CCCC[C@H]1OCOC)c1ccccc1 (stereo partly specified) | inactive: > 100 µM
OC[C@@H](O)[C@H]1NC[C@@H](O)[C@H]1O | inactive: > 100 µM
CC(C)(C)c1cc(C(=O)/C=C/c2ccc(C(=O)O)cc2)cc(C(C)(C)C)c1 | inactive: 2.84 µM
O=c1c(C(c2ccc3ccccc3c2)c2c(O)oc3cc(O)ccc3c2=O)c(O)oc2cc(O)ccc12 | inactive: > 100 µM
Oc1ccc(-c2nc(-c3cccnc3)c(-c3ccc(Cl)cc3)[nH]2)cc1 | inactive: 14.5 µM
NCCCNc1ccc2c3c(nn2CCNCCO)-c2c(O)ccc(O)c2C(=O)c13 | inactive: 3.08 µM
c1ccc(-c2ccnc3c2ccc2c(-c4ccccc4)ccnc23)cc1 | active: 1 µM
COc1cc(OC)c2c(=O)c(O)c(-c3ccc(OC)c(OC)c3)oc2c1 | inactive: 5.19 µM
O=c1c(C(c2ccc(OCc3ccccc3)cc2)c2c(O)oc3ccccc3c2=O)c(O)oc2ccccc12 | inactive: 83.9 µM

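Method: 48-hour compound exposure of cells in 96-well plates, five concentrations, linear interpolation of endpoints. The concentration for 50% growth inhibition is given as GI50.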 Active and inactive are the calls of the source. Rule as the data show it: active = GI50 up to about 1.1 µM and inactive = higher.
